Source: PubChem BioAssay AID488969 (Vanderbilt High Throughput Screening Facility, 2010)
Where “and” joins values, the source holds several entries; their conditions need not be identical. Equal values may be shown once. Whole data set: some 110,000 compounds, median “z-score” near -0.1, cut for the highest 2% near 2. This is one part of the list.

What follows are compounds tested against Metabotropic glutamate receptor 8 (Rattus norvegicus) (UniProt P70579) (assay: mGluR8 Gi/Go-coupled signaling modulation – cell-based, rat, thallium flux, HTS, primary screen (AID 488969)). Conditions: HEK293 rat mGluR8, GIRK (G protein-gated inwardly rectifying potassium channel) thallium flux, FluoZin2; at 10 µM; stronger effect = higher value; submaximal glutamate (EC20) added with thallium.
UniProt P70579, sequence (P70579 whole entry, looked up): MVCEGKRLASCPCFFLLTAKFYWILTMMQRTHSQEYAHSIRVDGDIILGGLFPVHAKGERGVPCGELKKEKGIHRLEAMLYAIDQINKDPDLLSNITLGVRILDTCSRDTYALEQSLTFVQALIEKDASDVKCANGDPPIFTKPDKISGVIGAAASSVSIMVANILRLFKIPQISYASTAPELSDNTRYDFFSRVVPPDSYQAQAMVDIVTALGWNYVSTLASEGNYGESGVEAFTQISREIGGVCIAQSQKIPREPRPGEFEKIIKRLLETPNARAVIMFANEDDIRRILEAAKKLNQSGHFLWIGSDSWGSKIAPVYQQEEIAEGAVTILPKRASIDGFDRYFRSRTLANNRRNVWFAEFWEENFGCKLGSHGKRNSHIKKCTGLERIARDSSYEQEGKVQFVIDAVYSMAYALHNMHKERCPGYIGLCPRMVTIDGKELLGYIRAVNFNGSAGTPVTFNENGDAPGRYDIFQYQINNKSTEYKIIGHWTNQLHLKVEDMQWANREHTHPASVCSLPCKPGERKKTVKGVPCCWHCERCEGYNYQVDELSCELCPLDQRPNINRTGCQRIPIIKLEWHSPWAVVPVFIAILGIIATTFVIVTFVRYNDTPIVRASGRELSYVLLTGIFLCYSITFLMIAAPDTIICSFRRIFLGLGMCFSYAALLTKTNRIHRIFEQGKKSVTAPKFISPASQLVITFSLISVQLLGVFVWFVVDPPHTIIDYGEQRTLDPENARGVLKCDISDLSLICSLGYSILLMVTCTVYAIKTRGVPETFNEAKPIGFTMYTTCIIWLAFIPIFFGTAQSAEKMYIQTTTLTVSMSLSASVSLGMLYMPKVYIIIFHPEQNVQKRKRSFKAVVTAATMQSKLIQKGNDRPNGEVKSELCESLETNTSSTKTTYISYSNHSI
Nc1nc(SCc2nc3scc(-c4ccccc4)c3c(=O)[nH]2)n[nH]1 showed a z-score of 0.366.
For CCn1cnc2cc(NCc3cccc(OC)c3O)ccc21, the z-score was -0.0422.
In the case of O=C(NC1CCCCC1)c1ccc(S(=O)(=O)NCc2cccnc2)cc1, the z-score is reported as 0.0275.
CCCCCCCC[n+]1cccc(C(=O)N2c3c(nc(N)[nH]c3=O)NC(C)C2C)c1 (stereo unspecified) showed a z-score of 0.119.
With CCOc1ncccc1C(=O)OCC(=O)N1CCN(S(=O)(=O)c2ccccc2)CC1 the z-score was -0.128.
For O=C(CCN1C(=O)/C(=C/C=C/c2ccccc2)SC1=S)Nc1nccs1, the z-score was -0.78.
Compound COc1ccccc1OCc1ccc(C(=O)N2CCN3CCCC3C2)cc1 (stereo unspecified) has a z-score of 0.356.
C/C(=N/NC(=O)c1sc(NS(=O)(=O)c2ccccc2)nc1C)c1ccccc1 was tested, and the z-score was 0.345.
CCn1c(SCC(=O)N2c3ccccc3Sc3ccccc32)nnc1-c1ccco1 showed a z-score of -2.42.
Work on CCN(CC)CCCOc1nc(C)nc2c1oc1ccccc12 yielded a z-score of 0.0553.
For CCOc1ccc(Cl)cc1CN1CCOCC1, the z-score was -0.517.
Compound COc1cc(C(=O)N2CCC(NC(=O)C(Cc3ccccc3C)NC(C)=O)CC2)cc(OC)c1OC (stereo unspecified) has a z-score of 0.0625.
CCC(C)(C)n1nnnc1C(c1ccc2ncccc2c1)N1CCCC(C)C1 (stereo unspecified) gave a z-score of -0.575.
With COc1cccc(OC)c1OCCOc1ccccc1OC(C)C the z-score was -0.203.
With O=C(OCCN1CCOCC1)c1cccnc1 the z-score was -0.0644 and 0.725.
With CCn1nc(C(=O)Nc2cccc3ccccc23)c(Cl)c1Cl the z-score was -0.173.
CC1CC(C)CN(CCCNC(=O)Cc2c(C(=O)O)n(C)c3ccccc23)C1 (stereo unspecified) gave a z-score of 0.0115.
Compound CCc1ccc2nc3n[nH]c(N)c3cc2c1 has a z-score of -0.0989.
Compound O=C(CS(=O)c1ccc(C(F)(F)F)cc1[N+](=O)[O-])Oc1ccccc1 (stereo unspecified) has a z-score of -0.141.
For CCCS(=O)(=O)N1CCN(S(=O)(=O)c2ccccc2)CC1, the z-score was -0.557.
O=c1[nH]cnc2cc(Cl)ccc12 showed a z-score of -0.0535.
In the case of Cc1cc(-c2nnco2)c(C)n1-c1ccccc1, the z-score is reported as -0.226.
Compound COc1ccc(Oc2nc(SC)nc3ccsc23)cc1 has a z-score of -0.225.
Work on CCCCNC(=O)C1CC(=O)N(CCC(C)C)C1 (stereo unspecified) yielded a z-score of -0.0189.
Work on COc1ccc(C(=O)NCc2nnc(SCC(=O)N3CCc4ccccc43)n2C2CCCCC2)cc1 yielded a z-score of 0.327.
O=C(Cn1nnc2ccccc2c1=O)NCCc1ccccc1 showed a z-score of -0.04.
With N#C/C(=C\c1cccnc1)C(=O)Nc1ccccc1 the z-score was -0.204.
With O=C(O)CCC(=O)Nc1nc(-c2ccccc2)cs1 the z-score was 0.102.
In the case of Cc1ccc(-n2c(-c3ccccc3)nnc2-c2cccs2)cc1, the z-score is reported as -0.571.
COc1ccc(C(=O)N(Cc2ccco2)C(C(=O)NC2CCCC2)c2ccc(O)cc2)cc1OC (stereo unspecified) was tested, and the z-score was -0.499.
Work on O=c1c2ccc(-c3nnc4n3-c3ccccc3SC4)cc2nc2n1CCCCC2 yielded a z-score of -0.365.
Compound CCN(CC)c1ncnnc1-c1ccccc1 has a z-score of -0.267.
Work on CCOc1ccc2[nH]c(=O)c(CN(Cc3ccc(C)cc3)C(=O)N3CCCC3)cc2c1 yielded a z-score of 0.457.
For O=S(=O)(Nc1ncn[nH]1)c1ccc(Cl)cc1, the z-score was 0.0176.
Cc1nc2ccc(NC(=O)N3CCN(c4ccccn4)CC3)cc2s1 showed a z-score of 0.0129.
Work on CCCCSc1nc2ccccc2n1CC(=O)O yielded a z-score of -0.412.
O=C(CCc1nc2ccccc2[nH]1)Nc1ccc(F)cc1 gave a z-score of 0.571.
Work on Cn1c(C(C#N)C(=O)c2sc3ccccc3c2Cl)nc2ccccc21 (stereo unspecified) yielded a z-score of -0.0401.
Cc1onc(-c2ccccc2Cl)c1C(=O)Nc1cc(=O)n(C)c(=O)n1C showed a z-score of -0.162.
Compound Cc1ccsc1/C=N/n1cnc2sc(C)c(C)c2c1=O has a z-score of 0.277.
Work on CC(=O)Nc1ccc(S(=O)(=O)N(C)CC(=O)OCC(=O)Nc2ccc3c(c2)OCO3)cc1 yielded a z-score of 0.11.
Compound O=C(CCn1c(=O)c2ccccc2n(Cc2cccnc2)c1=O)NCc1ccc2c(c1)OCO2 has a z-score of 0.361.
Cn1c(=O)n(C)c2cc([N+](=O)[O-])c(N3CCN(S(=O)(=O)c4ccc5ccccc5c4)CC3)cc21 showed a z-score of -1.61.
For O=C(Nc1ccccc1)c1c(F)c(F)c(F)c(F)c1F, the z-score was -0.122.
NC(=O)C1CCN(C(=O)c2ccc(NC3=NC4CS(=O)(=O)CC4S3)cc2)CC1 (stereo unspecified) was tested, and the z-score was -0.161.
Cc1snc2sc(C(=O)c3ccc(Br)cc3)c(N)c12 gave a z-score of -0.378.
Compound Cc1ccc2c(c1)c(CC(=O)Nc1ccc(C)c(F)c1)c(C(=O)O)n2C has a z-score of -0.802.
Work on CCOC(=O)NC(=O)CSc1nnnn1-c1ccc(C)cc1 yielded a z-score of -0.044.
For Cc1cc(Br)ccc1NCc1ccccn1, the z-score was 0.00249.
With O=c1c2ccccc2c(-c2ccccc2)nn1Cc1c(Cl)cccc1Cl the z-score was -0.0848.
CCOC(=O)C1=C(CS(=O)(=O)c2ccccc2)NC(=O)NC1c1ccccc1 (stereo unspecified) showed a z-score of 0.642.
Work on Fc1ccc(-c2nn3c(C4COc5ccccc5O4)nnc3s2)cc1 (stereo unspecified) yielded a z-score of 0.848.
In the case of CC1(C)OC(=O)CC1C(=O)NCc1ccccc1 (stereo unspecified), the z-score is reported as 0.573.
Compound CCOc1ccc(Cl)cc1S(=O)(=O)N1CCN(c2ccc(C)c(C)c2)CC1 has a z-score of -0.391.
For C/C(Cn1cnc([N+](=O)[O-])n1)=N\NC(=O)c1cccc(F)c1, the z-score was -0.0241.
COc1cc(/C=C/c2nc(-c3ccccc3O)n[nH]2)cc(OC)c1OC showed a z-score of -0.401.
Work on CCc1ccc(OCC(O)CN2CCC(CN3C(=O)c4cccc5cccc(c45)C3=O)CC2)cc1 (stereo unspecified) yielded a z-score of -0.57.
COc1c(/C=N/NC(=O)c2ccccc2O)c(CCN(C)C(C)=O)cc2c1OCO2 showed a z-score of -0.0341.
For CO/N=C/NC(=O)NOCc1ccc(Cl)cc1Cl, the z-score was -0.332.
CCc1nc2ccccc2c(C(=O)Oc2cccc3cccnc23)c1C was tested, and the z-score was -0.719.
Nc1nc(SCC(=O)NCc2ccco2)[nH]c(=O)c1-c1ccccc1 was tested, and the z-score was -0.148.
Compound CCCCn1c(SCC(=O)O)nc2ccccc21 has a z-score of -0.804.
O=C(NCc1cn(-c2ccccc2)nc1-c1ccccc1)c1cc([N+](=O)[O-])cc([N+](=O)[O-])c1 was tested, and the z-score was 0.187.
Compound CCn1c(SCc2nc3scc(-c4ccccc4)c3c(=O)[nH]2)nnc1-c1cccs1 has a z-score of -0.975.
Work on Cc1cc(N2CCOCC2)nc2ccc(NC(=O)CCC(=O)N3CCCCC3)cc12 yielded a z-score of -0.00221.
Compound Cc1nn2c(-c3ccncc3)nnc2c2ccccc12 has a z-score of -1.3.
With O=C(CN1CCOc2ccccc21)NC1CCN(Cc2ccccc2)CC1 the z-score was -0.53.
Work on CC1CCOC2(O1)C(=O)N(CN1CCN(c3cccc(Cl)c3)CC1)c1ccccc12 (stereo unspecified) yielded a z-score of -0.0539.
In the case of CCCOc1ccc(Cn2c(O)cc(=O)[nH]c2=O)cc1, the z-score is reported as -0.238.
In the case of O=C1Nc2ccccc2/C1=C/C(=O)c1cccs1, the z-score is reported as 0.962.
COc1cccc(-c2noc(N)c2C#N)c1 showed a z-score of -0.206.
COC(=O)c1ccc(C(c2c(N)n(CC(C)C)c(=O)[nH]c2=O)N2CCN(c3ccccc3)CC2)cc1 (stereo unspecified) showed a z-score of 0.147.
For CCOC(=O)C1=C(C)Nc2nnnn2C1c1c[nH]c2ccccc12 (stereo unspecified), the z-score was -0.097.
COC(=O)Cc1ccc(NC(=S)NN2CCOCC2)cc1 gave a z-score of -0.09.
CN1CCN(/N=C/c2nc(-c3ccc(Cl)cc3)n3ccccc23)CC1 was tested, and the z-score was -0.0274.
Work on COC(=O)c1cc(OC)c(OC)cc1NC(=O)c1cccnc1 yielded a z-score of -0.373.
C=CCN(CC=C)c1nc2ccccc2nc1C(C#N)C(=O)OCCOC (stereo unspecified) gave a z-score of -0.858.
CCN1CCN(CC(O)COCCOc2ccc(Br)cc2)CC1 (stereo unspecified) showed a z-score of -0.122.
Compound Brc1ccc(C2=CC(c3cccs3)n3ncnc3N2)cc1 (stereo unspecified) has a z-score of -1.55.
CCC(COC(=O)Nc1cccc(C)c1C)NC(=O)OCC(C)C (stereo unspecified) showed a z-score of -0.549.
Compound CCOC(=O)c1ccc(NC(=O)CSc2nc(C)nc3c2c(=O)n(C)c(=O)n3C)cc1 has a z-score of 0.221.
With O=C(COC(=O)c1cccc(S(=O)(=O)N2CCOCC2)c1)Nc1ncc(C(F)(F)F)cc1Cl the z-score was -0.14.
For COC(=O)c1ccc(CSc2nc(C)nc3sc(C)c(C)c23)o1, the z-score was 1.53.
O=C(COc1ccc(/C=N/NC(=O)c2ccccc2)cc1)Nc1ccc([N+](=O)[O-])cc1 showed a z-score of 0.0219.
Work on CCOC(=O)c1c(C)oc2c1c(C=NCC1CCCO1)c(O)c1ccccc12 (stereo unspecified) yielded a z-score of -0.244.
With COCCNC(=O)CSc1nc2cc(OC)c(OC)cc2c(=O)n1Cc1ccco1 the z-score was 0.329.
O=S(=O)(/N=C(/c1ccccc1)N1CCCCC1)c1ccccc1 gave a z-score of -0.126.
Compound O=C(CNC(=O)c1ccco1)OCc1ccc(Cl)cc1 has a z-score of -0.161.
In the case of CCn1cc(C(=O)N2CCN(c3cccc(Cl)c3)CC2)c2cc(OC)c(OC)cc2c1=O, the z-score is reported as 0.219.
In the case of COc1cc(NC(=O)COC(=O)c2ccc(C)c(S(=O)(=O)N3CCCCC3)c2)c(C)cc1[N+](=O)[O-], the z-score is reported as -0.856.
For CCn1c(SCC(=O)N2CCN(c3ccccc3)CC2)nnc1-c1c[nH]c2ccccc12, the z-score was -0.779.
CCCc1ccc(Oc2coc3cc(OCC(=O)Nc4ccccc4C)ccc3c2=O)cc1 was tested, and the z-score was -0.0523.
Cc1cc(C)c(C#N)c(N2CCSCC2)n1 gave a z-score of -0.563.
In the case of Cc1cc(C)nc(N(C#N)CCOc2ccccc2)n1, the z-score is reported as -0.698.
In the case of Cc1ccc2c(c1)N(CC(=O)NCc1ccco1)C(=O)CO2, the z-score is reported as -0.265.
Compound O=C(NCC1CCCO1)c1ccc(N2CCCCC2)nc1 (stereo unspecified) has a z-score of 0.113.
COc1cc(CC(=O)Nc2sccc2C(N)=O)cc(OC)c1OC gave a z-score of 0.767.
With CC1(C)C2CCC13CS(=O)(=O)NC3C2 (stereo unspecified) the z-score was -0.0436.
Clc1ccc2nc(-c3ccccc3)c(CN3CCOCC3)n2c1 showed a z-score of -0.26.
With COc1cccc(/C=N/NC(=O)C(C)n2nc(C)c([N+](=O)[O-])c2C)c1O (stereo unspecified) the z-score was -0.579.
With CN(C)S(=O)(=O)Oc1cccc(C(=O)Nc2cccc(Cl)c2)c1 the z-score was -0.764.
With O=C(CC(C(=O)N1CCc2ccccc21)n1ccnc1)NCc1ccccc1 (stereo unspecified) the z-score was -0.318.
CCc1ccccc1OCCOc1ccc(C)cc1OC showed a z-score of -0.148.
CCCn1cc(SCC(=O)NCc2ccco2)c2ccccc21 was tested, and the z-score was -0.826.
CC(NC(=O)c1cccnc1)C(c1cccs1)N1CCOCC1 (stereo unspecified) showed a z-score of -0.295.
With CSc1ccccc1NC(=O)c1onc(C)c1Cl the z-score was 0.00573.
For Nc1c(C(=O)NCc2ccc(Cl)cc2)sc2nc3c(c(C(F)(F)F)c12)CCC3, the z-score was 0.532.
Cc1cc2cc(CNC(=O)c3ccc(S(=O)(=O)N4CCOCC4)cc3)ccc2n1C showed a z-score of -0.249.
With Cc1ccc2nc(-c3ccc(NC(=S)NC(=O)CC(C)C)cc3)sc2c1 the z-score was -0.0287.
O=c1cnn(-c2ccccc2)c(-c2ccccc2)c1 showed a z-score of -1.39.
Cc1ccc2c(C)nc(Nc3nc(CSc4nc5ccccc5[nH]4)cc(=O)[nH]3)nc2c1 gave a z-score of -0.473.
